Measured values from article PMC9911399, “Two distinct binding modes provide the RNA-binding protein RbFox with extraordinary sequence specificity”.
Changes are numbered by the printed parent chain; changes in the protein carry UniProt numbers. This is one part of the list.

T1: RBFOX1 RRM (Homo sapiens, UniProt Q9NWB1 109-208)
T1 sequence: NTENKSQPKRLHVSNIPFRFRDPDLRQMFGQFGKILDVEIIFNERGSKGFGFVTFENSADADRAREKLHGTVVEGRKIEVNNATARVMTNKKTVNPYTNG

B1: UCCACAA (DNA:RNA)
RNA: GGGAGACCGGAAUUCAGAUUGUCCUCCACAAUUAAAUCCCGUCGUAGCCACCA
DNA 1: CAATCTGAATTCCGGTCTCCC
DNA 2: TGGTGGCTACGACGGGATT
B2: CCAAGAG (DNA:RNA)
RNA: B1 RNA with U25C, C27A, C29G, A31G
DNA 1: CAATCTGAATTCCGGTCTCCC
DNA 2: TGGTGGCTACGACGGGATT
B3: GCGACGU (DNA:RNA)
RNA: B1 RNA with U25G, C27G, A30G, A31U
DNA 1: CAATCTGAATTCCGGTCTCCC
DNA 2: TGGTGGCTACGACGGGATT
B4: UUGGACC (DNA:RNA)
RNA: B1 RNA with C26U, C27G, A28G, C29A, A30C, A31C
DNA 1: CAATCTGAATTCCGGTCTCCC
DNA 2: TGGTGGCTACGACGGGATT
B5: CUCUAGU (DNA:RNA)
RNA: B1 RNA with U25C, C26U, A28U, C29A, A30G, A31U
DNA 1: CAATCTGAATTCCGGTCTCCC
DNA 2: TGGTGGCTACGACGGGATT
B6: AAUAUGC (DNA:RNA)
RNA: B1 RNA with U25A, C26A, C27U, C29U, A30G, A31C
DNA 1: CAATCTGAATTCCGGTCTCCC
DNA 2: TGGTGGCTACGACGGGATT
B7: UUGUAGA (DNA:RNA)
RNA: B1 RNA with C26U, C27G, A28U, C29A, A30G
DNA 1: CAATCTGAATTCCGGTCTCCC
DNA 2: TGGTGGCTACGACGGGATT
B8: GCUGGUC (DNA:RNA)
RNA: B1 RNA with U25G, C27U, A28G, C29G, A30U, A31C
DNA 1: CAATCTGAATTCCGGTCTCCC
DNA 2: TGGTGGCTACGACGGGATT
B9: GGAGAUC (DNA:RNA)
RNA: GGGAGACCGGAAUUCAGAUUGUCCGGAGAUCUUAAAUCCCGUCGUAGCCACCA
DNA 1: CAATCTGAATTCCGGTCTCCC
DNA 2: TGGTGGCTACGACGGGATT
B10: GUGCUGU (DNA:RNA)
RNA: B9 RNA with G26U, A27G, G28C, A29U, U30G, C31U
DNA 1: CAATCTGAATTCCGGTCTCCC
DNA 2: TGGTGGCTACGACGGGATT
B11: GUGCCGA (DNA:RNA)
RNA: B1 RNA with U25G, C26U, C27G, A28C, A30G
DNA 1: CAATCTGAATTCCGGTCTCCC
DNA 2: TGGTGGCTACGACGGGATT
B12: GGCAAUU (DNA:RNA)
RNA: B9 RNA with A27C, G28A, C31U
DNA 1: CAATCTGAATTCCGGTCTCCC
DNA 2: TGGTGGCTACGACGGGATT
B13: UGUGAAU (DNA:RNA)
RNA: B9 RNA with G25U, A27U, U30A, C31U
DNA 1: CAATCTGAATTCCGGTCTCCC
DNA 2: TGGTGGCTACGACGGGATT
B14: AAGGCGU (DNA:RNA)
RNA: B9 RNA with G25A, G26A, A27G, A29C, U30G, C31U
DNA 1: CAATCTGAATTCCGGTCTCCC
DNA 2: TGGTGGCTACGACGGGATT
B15: CACAGUC (DNA:RNA)
RNA: B9 RNA with G25C, G26A, A27C, G28A, A29G
DNA 1: CAATCTGAATTCCGGTCTCCC
DNA 2: TGGTGGCTACGACGGGATT
B16: CUUGCGU (DNA:RNA)
RNA: B9 RNA with G25C, G26U, A27U, A29C, U30G, C31U
DNA 1: CAATCTGAATTCCGGTCTCCC
DNA 2: TGGTGGCTACGACGGGATT
B17: CUAUUAG (DNA:RNA)
RNA: B9 RNA with G25C, G26U, G28U, A29U, U30A, C31G
DNA 1: CAATCTGAATTCCGGTCTCCC
DNA 2: TGGTGGCTACGACGGGATT
B18: AGAGUUA (DNA:RNA)
RNA: B9 RNA with G25A, A29U, C31A
DNA 1: CAATCTGAATTCCGGTCTCCC
DNA 2: TGGTGGCTACGACGGGATT
B19: UAAGAUU (DNA:RNA)
RNA: B9 RNA with G25U, G26A, C31U
DNA 1: CAATCTGAATTCCGGTCTCCC
DNA 2: TGGTGGCTACGACGGGATT
B20: AUACAUC (DNA:RNA)
RNA: B9 RNA with G25A, G26U, G28C
DNA 1: CAATCTGAATTCCGGTCTCCC
DNA 2: TGGTGGCTACGACGGGATT
B21: UGAACUG (DNA:RNA)
RNA: B9 RNA with G25U, G28A, A29C, C31G
DNA 1: CAATCTGAATTCCGGTCTCCC
DNA 2: TGGTGGCTACGACGGGATT
B22: CUUUUCG (DNA:RNA)
RNA: GGGAGACCGGAAUUCAGAUUGUCCCUUUUCGUUAAAUCCCGUCGUAGCCACCA
DNA 1: CAATCTGAATTCCGGTCTCCC
DNA 2: TGGTGGCTACGACGGGATT
B23: GCUCACU (DNA:RNA)
RNA: B22 RNA with C25G, U26C, U28C, U29A, G31U
DNA 1: CAATCTGAATTCCGGTCTCCC
DNA 2: TGGTGGCTACGACGGGATT
B24: GGCCUUG (DNA:RNA)
RNA: B9 RNA with A27C, G28C, A29U, C31G
DNA 1: CAATCTGAATTCCGGTCTCCC
DNA 2: TGGTGGCTACGACGGGATT
B25: GCCUCGU (DNA:RNA)
RNA: B1 RNA with U25G, A28U, A30G, A31U
DNA 1: CAATCTGAATTCCGGTCTCCC
DNA 2: TGGTGGCTACGACGGGATT
B26: GUAGUGG (DNA:RNA)
RNA: B22 RNA with C25G, U27A, U28G, C30G
DNA 1: CAATCTGAATTCCGGTCTCCC
DNA 2: TGGTGGCTACGACGGGATT
B27: UAAUAGG (DNA:RNA)
RNA: B22 RNA with C25U, U26A, U27A, U29A, C30G
DNA 1: CAATCTGAATTCCGGTCTCCC
DNA 2: TGGTGGCTACGACGGGATT
B28: UAGCCUC (DNA:RNA)
RNA: B9 RNA with G25U, G26A, A27G, G28C, A29C
DNA 1: CAATCTGAATTCCGGTCTCCC
DNA 2: TGGTGGCTACGACGGGATT
B29: GAUAAAA (DNA:RNA)
RNA: B1 RNA with U25G, C26A, C27U, C29A
DNA 1: CAATCTGAATTCCGGTCTCCC
DNA 2: TGGTGGCTACGACGGGATT
B30: GACGCUG (DNA:RNA)
RNA: B9 RNA with G26A, A27C, A29C, C31G
DNA 1: CAATCTGAATTCCGGTCTCCC
DNA 2: TGGTGGCTACGACGGGATT
B31: ACAUCCC (DNA:RNA)
RNA: B22 RNA with C25A, U26C, U27A, U29C, G31C
DNA 1: CAATCTGAATTCCGGTCTCCC
DNA 2: TGGTGGCTACGACGGGATT

Target: T1, RBFOX1 RRM
Test: EMSA; HiTS-Eq, 1 nM pool, 10 min; buffer printed only for the single-RNA assays: 10 mM Tris pH 7.5, 150 mM NaCl, 3.4 mM EDTA, 0.001% NP-40, 30 C
Settings: tags: His6 N-terminal (pET28a); label: 5' 32P
How it was run: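 Purified RbFox RRM (wild type or mutant) was equilibrated for 10 min in 50 µL with 1 nM of a 5′-radiolabelled pool of RNA with 7 randomized nucleotides, its flanks annealed to DNA oligonucleotides, across increasing protein concentrations. Free RNA was separated by 8% native PAGE, excised, reverse-transcribed, PCR-barcoded and sequenced on an Illumina HiSeq 2500. Relative association constants came from read-count changes of each variant against the control reaction, normalised to the cognate motif.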

B1 was tested. Which binding signal did it give?
The binding signal was 0.00323 KA relative to UGCAUGU.

With B2 as the binder, how does the binding signal read?
The binding signal was 0.0027 KA relative to UGCAUGU.

How did the binding signal turn out when B3 was run?
Its binding signal is 0.0158 KA relative to UGCAUGU.

B4 was tested. Which binding signal did it give?
The binding signal was 0.00805 KA relative to UGCAUGU.

B5 was tested. Which binding signal did it give?
The binding signal was 0.00652 KA relative to UGCAUGU.

Which binding signal does the source give for B6 here?
The binding signal was 0.00865 KA relative to UGCAUGU.

Which binding signal does the source give for B7 here?
Its binding signal is 0.0152 KA relative to UGCAUGU.

How did the binding signal turn out when B8 was run?
The binding signal was 0.0255 KA relative to UGCAUGU.

B9 was tested. Which binding signal did it give?
Its binding signal is 0.0208 KA relative to UGCAUGU.

With B10 as the binder, how does the binding signal read?
The binding signal was 0.021 KA relative to UGCAUGU.

B11 was tested. Which binding signal did it give?
The binding signal was 0.0204 KA relative to UGCAUGU.

Which binding signal does the source give for B12 here?
Its binding signal is 0.007 KA relative to UGCAUGU.

B13 was tested. Which binding signal did it give?
Its binding signal is 0.0228 KA relative to UGCAUGU.

Which binding signal does the source give for B14 here?
The binding signal was 0.00908 KA relative to UGCAUGU.

With B15 as the binder, how does the binding signal read?
The binding signal was 0.00442 KA relative to UGCAUGU.

B16 was tested. Which binding signal did it give?
Its binding signal is 0.0175 KA relative to UGCAUGU.

How did the binding signal turn out when B17 was run?
Its binding signal is 0.00862 KA relative to UGCAUGU.

Which binding signal does the source give for B18 here?
The binding signal was 0.00482 KA relative to UGCAUGU.

B19 was tested. Which binding signal did it give?
Its binding signal is 0.00913 KA relative to UGCAUGU.

B20 was tested. Which binding signal did it give?
The binding signal was 0.000298 KA relative to UGCAUGU.

How did the binding signal turn out when B21 was run?
The binding signal was 0.0205 KA relative to UGCAUGU.

How did the binding signal turn out when B22 was run?
The binding signal was 0.016 KA relative to UGCAUGU.

How did the binding signal turn out when B23 was run?
Its binding signal is 0.00818 KA relative to UGCAUGU.

Which binding signal does the source give for B24 here?
The binding signal was 0.0328 KA relative to UGCAUGU.

B25 was tested. Which binding signal did it give?
The binding signal was 0.0131 KA relative to UGCAUGU.

Which binding signal does the source give for B26 here?
Its binding signal is 0.012 KA relative to UGCAUGU.

B27 was tested. Which binding signal did it give?
The binding signal was 0.00386 KA relative to UGCAUGU.

How did the binding signal turn out when B28 was run?
The binding signal was 0.00934 KA relative to UGCAUGU.

Which binding signal does the source give for B29 here?
The binding signal was 0.00401 KA relative to UGCAUGU.

How did the binding signal turn out when B30 was run?
Its binding signal is 0.0241 KA relative to UGCAUGU.

B31 was tested. Which binding signal did it give?
Its binding signal is 0.000249 KA relative to UGCAUGU.
